Experimental data published in PMC4336329 (PLoS ONE, 2015).
Out of some 310,000 compounds screened, about 14,000 (4.5%) showed an effect of 50% or more. Effects have a minus sign here. The list shows a part of the results.

The compounds below were run against human ether-à-go-go-related gene (hERG) potassium channel (human, UniProt Q12809) (assay: primary screen, population patch clamp on CHO cells stably expressing hERG).
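Further: peak tail current of the secondary pulse compared with the same well before compound.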

Sequence of human ether-à-go-go-related gene (hERG) potassium channel (Q12809 whole entry, looked up): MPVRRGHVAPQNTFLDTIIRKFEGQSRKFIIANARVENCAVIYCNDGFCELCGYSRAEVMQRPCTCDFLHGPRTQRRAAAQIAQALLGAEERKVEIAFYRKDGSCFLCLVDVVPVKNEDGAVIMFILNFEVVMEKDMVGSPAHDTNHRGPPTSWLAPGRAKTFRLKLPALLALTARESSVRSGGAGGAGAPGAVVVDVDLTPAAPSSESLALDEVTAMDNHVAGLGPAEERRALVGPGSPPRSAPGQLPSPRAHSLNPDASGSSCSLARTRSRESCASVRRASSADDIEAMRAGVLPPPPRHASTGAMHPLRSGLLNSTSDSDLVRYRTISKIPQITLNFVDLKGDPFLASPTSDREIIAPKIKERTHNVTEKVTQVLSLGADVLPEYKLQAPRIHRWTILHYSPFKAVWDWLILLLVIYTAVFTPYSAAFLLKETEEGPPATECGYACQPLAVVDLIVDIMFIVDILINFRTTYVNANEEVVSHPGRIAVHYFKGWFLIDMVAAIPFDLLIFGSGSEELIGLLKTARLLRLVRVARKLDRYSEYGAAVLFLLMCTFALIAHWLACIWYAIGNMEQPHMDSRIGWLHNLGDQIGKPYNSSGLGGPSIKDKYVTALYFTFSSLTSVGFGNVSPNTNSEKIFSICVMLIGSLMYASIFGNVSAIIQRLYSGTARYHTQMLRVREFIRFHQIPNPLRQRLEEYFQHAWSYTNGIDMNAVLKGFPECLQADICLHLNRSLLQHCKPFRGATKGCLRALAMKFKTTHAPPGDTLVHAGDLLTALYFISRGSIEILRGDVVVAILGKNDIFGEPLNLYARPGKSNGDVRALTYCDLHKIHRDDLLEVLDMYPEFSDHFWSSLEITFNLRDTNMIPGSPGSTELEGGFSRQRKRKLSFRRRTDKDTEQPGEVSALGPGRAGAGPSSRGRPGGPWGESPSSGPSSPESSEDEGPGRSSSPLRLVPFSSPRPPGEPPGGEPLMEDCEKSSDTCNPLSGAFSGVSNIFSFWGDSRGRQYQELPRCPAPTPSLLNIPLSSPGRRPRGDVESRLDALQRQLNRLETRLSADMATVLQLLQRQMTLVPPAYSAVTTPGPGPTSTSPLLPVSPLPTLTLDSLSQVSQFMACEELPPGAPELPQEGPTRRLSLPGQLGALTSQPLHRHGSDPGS

SMILES | hERG current change (%, negative = inhibition) at 10uM
O=C(NCC1CCCCC1)c1ccc(Br)o1 | 1.42%
Cc1cccc(OCC(=O)Nc2nc(-c3ccncc3)cs2)c1 | 7.32%
COC(=O)c1ccccc1NC(=O)Nc1ccc(C(=O)N2CCCC2)cc1 | 10.2%
CC(=O)Nc1ccccc1NC(=O)C/C(C)=N/NC(=O)c1ccncc1 | 19.6%
O=C(Nc1ccccc1)NC1CCN(CCCN2C(=O)c3ccccc3C2=O)CC1 | -61.4%
CC(C)(C)NS(=O)(=O)c1ccc(NC(=S)NC(=O)C2CCC2)cc1 | 14.2%
O=C(Cn1cncc1-c1ccc([N+](=O)[O-])cc1)Nc1cccc2ccccc12 | 6.12%
Cn1cc(CNCc2ccc(OC(F)(F)F)cc2)c(-c2ccc3c(c2)OCCO3)n1 | -43%
CCOC(=O)n1n[n+]([O-])c2ccccc21 | 35.5%
O=C(NCCCN1CCOCC1)c1cccs1 | 18%
COc1ccc(N2CCN(Cc3nc(N)nc(Nc4ccccc4OC)n3)CC2)cc1 | -62%
Cc1cccc2c1-c1sc(C(=O)Nc3cccnc3)cc1CO2 | 9.26%
COC(=O)c1ccc(S(=O)(=O)N2Cc3ccccc3C2)cc1 | 17.8%
CN(C(=O)c1ccc(NC(=O)c2ccco2)cc1)c1ccccc1 | 6.66%
NC(=O)CC(NC(=O)c1ccccc1)c1ccc(NCCCN2CCCC2=O)c([N+](=O)[O-])c1 (centres unmarked) | 9.02%
CC1=C([N+](=O)[O-])C(c2ccc(Cl)cc2)NC(=O)N1 (centres unmarked) | 7.82%
CC(=O)NCCc1nc2cc(NC(=O)COc3cccc(C)c3)ccc2n1C | 6.53%
O=C(Cn1cnc(S(=O)(=O)N2CCOCC2)c1)Nc1ccc(OC(F)(F)F)cc1 | 27.1%
Nc1ccc2c(c1)nnn2-c1ccccc1 | -7.35%
O=C(CSc1nnc(-c2ccccc2Cl)o1)N1CCOCC1 | -3.86%
CC1=C(C(=O)Nc2ccccc2C)C(c2ccc(C)o2)NC(=S)N1 (centres unmarked) | 7.85%
CN(C)CCCOc1nc2c(c(=O)n(C)c(=O)n2C)n1C.Cl | 16.7%
COCC(C)n1c(C)cc(C(=O)COC(=O)CCc2nc3ccccc3c(=O)[nH]2)c1C (centres unmarked) | 5.91%

SMILES | hERG current change (%, negative = inhibition) at 10uM
O=P(NS(=O)(=O)c1ccccc1)(Oc1ccccc1)Oc1ccccc1 | 5.77%
CCn1cnc2cc(NS(=O)(=O)c3ccc(OC)c(OC)c3)ccc21 | 13.5%
COc1cc(NC(=S)Nc2ccccn2)c(OC)cc1Cl | 15.8%
CC1=CC(=O)N(c2ccn(C)n2)C1=O | 20.4%
CC(=NCCO)c1c(O)n(C)c(=O)n(C)c1=O | 12.3%
COc1ccc(Cl)cc1C(=O)NNC(=O)CCNC(C)=O | 24.7%
Cc1ccc(NS(=O)(=O)c2ccc(C)c(NC(=O)COc3ccccc3)c2)c(C)c1 | -9.8%
COC(=O)N/N=C/c1ccc(-c2ccc(Cl)cc2Cl)o1 | 14.3%
Cn1cc(/C=C(\NC(=O)c2ccccc2)C(=O)NCCCN2CCOCC2)c2ccccc21 | 3.43%
COc1ccc(Cl)cc1NC(=O)CN(C)C1CCS(=O)(=O)C1 (centres unmarked) | -23.3%
COc1ccc(C(=O)N=C2CCC(C#N)=C3c4cc(OC)c(OC)cc4CCN23)cc1 | 11.5%
CSc1ncc(C(=O)Nc2ccccc2Cl)c(C)n1 | 13.6%
O=C(NCc1ccc2c(c1)OCO2)c1cccc(S(=O)(=O)N2CCOCC2)c1 | -10.1%
Cn1c(COc2ccccc2)nnc1SCC(=O)Nc1ccc(N2CCOCC2)cc1 | 2.57%
CCOc1ccccc1C(=O)N[C@H](C(=O)Nc1nc2c(s1)CCCC2)C(C)C | 9.91%
CC(NC(=O)CSc1nnc(COc2ccccc2)o1)c1ccccc1 (centres unmarked) | -13.9%
CSc1ccc(/C=N/Nc2ccc(Cl)c(C(=O)O)c2)cc1 | 6.73%
CCOC(=O)c1c(-c2ccc(-c3ccccc3)cc2)csc1NC(=O)CCN1CCOCC1 | 13.8%
O=C(CCl)Nc1cc(S(=O)(=O)N2CCCCCC2)ccc1Cl | -22.9%
O=C1CC(c2ccccc2)CN1Cc1ccccc1 (centres unmarked) | -3.31%
COc1ccc(NC(=O)CN2CCN(S(=O)(=O)c3cccs3)CC2)cc1Cl | -36.9%
Cc1cccc(CN2CCC(Oc3ccc(C(=O)N4CCCC4)cc3)CC2)n1 | 5.49%
CSc1nnc(-c2ccccc2Cl)n1N | -2.43%

SMILES | hERG current change (%, negative = inhibition) at 10uM
Cc1cccc(NC(=O)CCCSc2nc3ccccc3[nH]2)c1 | -13%
O=C(CN(C(=O)c1csnn1)c1ccc(F)cc1)NCc1ccc2c(c1)OCO2 | 9.12%
CCC1CCCCN1CCCNC(=O)C1CCN(c2nnc(-n3cccc3)s2)CC1 (centres unmarked) | -18.7%
CCOCCCNc1ncnc2c1[nH]c1ccccc12 | -8.92%
Cc1cc(C)c(S(=O)(=O)NC2CCN(Cc3ccccc3)CC2)c(C)c1.Cl | -47.6%
CC(C)NCC(O)COC1C2CC3CC(C2)CC1C3.Cl (centres unmarked) | 7.13%
CC(C)(C)C(=O)/C=c1\s/c(=C\c2ccc(-c3ccc([N+](=O)[O-])cc3)o2)c(=O)n1CC(=O)NC(N)=O | 18.9%
Cc1ccc(C2C3=C(CC(C)(C)CC3=O)Nc3[nH]c(=S)[nH]c(=O)c32)cc1 (centres unmarked) | 42.3%
Cc1sc(NC(=O)CN(C)C2CCCCC2)nc1-c1ccc2c(c1)CCN2S(=O)(=O)c1ccccc1 | 11%
COc1cc2nc(CN(CCC(C)C)Cc3nc4cc(OC)c(OC)cc4c(=O)[nH]3)[nH]c(=O)c2cc1OC | -2.68%
CC1CN(C(=O)c2ccccc2OCc2ccccc2Cl)CC(C)O1 (centres unmarked) | -6.54%
COc1ccc(N2CCN(C(=O)CSc3nc4[nH]ncc4c(=O)n3-c3cccc4ccccc34)CC2)cc1 | -30%
COc1ccc2c(c1)c(C(C)=O)c(C)n2C | 4.06%
CCN(CC)CCNS(=O)(=O)c1ccc(Cl)cc1.Cl | -12.9%
COC(=O)c1cc(NS(=O)(=O)c2ccc(N3CCCCCC3)c([N+](=O)[O-])c2)cc(C(=O)OC)c1 | 4.17%
O=C(NCCCN1CCOCC1)c1ccc(-n2nc(C(F)(F)F)cc2-c2cccs2)cc1 | -80.4%
CC(C)(C)NC(=O)Nc1ccc(Br)cc1 | 9.71%
CCC/C(=N\NC(=O)Cc1csc(N2CCOCC2)n1)c1ccccc1 | -13.5%
Cc1nnc(NC(=O)CSc2nccn2-c2cccc(C)c2C)s1 | 8.58%
Cc1ccc(CNC(=O)C2CCN(S(=O)(=O)c3ccc4c(c3)CC(C)N4C(=O)C3CCC3)CC2)o1 (centres unmarked) | -5.01%
COc1c2occc2c(OC)c2c(=O)cc(C(F)(F)F)oc12 | 5.02%
COc1cc(-c2cc(C(=O)Nc3ccccc3N3CCOCC3)c3ccccc3n2)cc(OC)c1OC | -8.6%
Cc1sc(NC(=O)CSc2nc(N)cc(N)n2)c(C#N)c1C | 10.5%

SMILES | hERG current change (%, negative = inhibition) at 10uM
COc1ccc(S(=O)(=O)N2CCSCC2)cc1C(N)=O | 20%
Cc1csc(NC(=O)C2=NN(c3ccccc3)C(=O)CC2)n1 | 13.6%
C=CCc1cc(Cl)ccc1OCCOCCNC(C)CC.O=C(O)C(=O)O (centres unmarked) | -69.2%
O=C(Nc1nnc(C2=COCCO2)o1)c1ccc(Cc2ccccc2)cc1 | -10.2%
C=CCOC(=O)C1CC=CCC1C(=O)Oc1ccc(F)cc1F (centres unmarked) | -18%
O=[N+]([O-])c1ccc(N2CCN(S(=O)(=O)c3ccccc3[N+](=O)[O-])CC2)cc1NCc1cccnc1 | -8.91%
CN(CC(=O)Nc1cccc2ccccc12)C(=O)c1ccc(F)cc1F | 3.89%
O=C(N/N=C\c1ccc(F)cc1)c1csnn1 | 1.56%
CCC1CCCCN1C(=O)COC(=O)c1cc(C)nc2ccccc12 (centres unmarked) | -9.3%
Cc1nnn(C23CC4CC(CC(C4)C2)C3)n1 | 7.98%
COCCn1c(SCC#N)nnc1-c1ccccc1 | -6.95%
Cc1ccc(C)c(Cn2c(=O)n(CCCC(=O)NCc3ccco3)c(=O)c3sccc32)c1 | -8.02%
O=S(=O)(c1ccccc1)N1CCN(c2ccnc3cc(Cl)ccc23)CC1 | -84%
O=C(CCSc1ccccc1)NCCSCc1ccco1 | -24.9%
CC1CCCN(Cc2c(O)ccc3c4c(c(=O)oc23)CCCC4)C1 (centres unmarked) | -9.99%
COc1ccc(C(=O)/C=C/c2ccc(O)cc2)c(O)c1CC=C(C)C | -7.26%
COc1cc2c(cc1OC)/C(=C/C(=O)c1ccc(OC)c([N+](=O)[O-])c1)NCC2 | 0.426%
Cc1noc(C)c1C(=O)N1CCN(c2ccc(OCc3ccccc3)cc2)CC1 | 5.74%
N#Cc1nc(Cc2cccc3ccccc23)oc1NCc1ccc(F)cc1 | 22.5%
CCCCCCSc1nsc(NC(=O)CC(C)C)n1 | 6.01%
